Some of the results follow. Repeats are few or missing, and single values can be far off.
System: SkMel5
Assay: cell count relative to DMSO control; melanoma cells; higher = more viable cells
Details: library dose: low library concentration; 72 h
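Note: cell number obtained by counting DAPI-stained nuclei in high-throughput microscope images with image analysis software, screen run in 1,536-well plates.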

Row | Structure (SMILES) | cell count
1 | Cn1cnc2c(F)c(Nc3ccc(Br)cc3Cl)c(C(=O)NOCCO)cc21 [selumetinib] + c1cc(-c2cnn3cc(-c4ccc(OCCN5CCCCC5)cc4)cnc23)ccn1 [Dorsomorphin] (first compound 0.015 µM, partner dose 0.4 µM) | 118%
2 | CCN(CC)CCNC(=O)c1c(C)[nH]c(/C=C2\C(=O)Nc3ccc(F)cc32)c1C [sunitinib] + CC(C)CCN1c2nc(Nc3cc(F)c(O)c(F)c3)ncc2N(C)C(=O)C1C [BID1870] (first compound 0.4 µM, partner dose 0.2 µM) | 102%
3 | COc1cc([C@@H]2c3cc4c(cc3[C@@H](O[C@@H]3O[C@@H]5CO[C@@H](C)O[C@H]5[C@H](O)[C@H]3O)[C@H]3COC(=O)[C@H]23)OCO4)cc(OC)c1O [etoposide] + COc1ccc(COc2ccc(Cc3cnc(N)nc3N)cc2OC)cc1 [GW2580] (first compound 0.02 µM, partner dose 1 µM) | 95.3%
4 | Cn1cnc2c(F)c(Nc3ccc(Br)cc3Cl)c(C(=O)NOCCO)cc21 [selumetinib] + NCC(=O)Nc1ccc(-n2nc(C(F)(F)F)cc2-c2ccc3c(ccc4ccccc43)c2)cc1 [OSU03012] (first compound 0.015 µM, partner dose 1 µM) | 103%
5 | COc1cc([C@@H]2c3cc4c(cc3[C@@H](O[C@@H]3O[C@@H]5CO[C@@H](C)O[C@H]5[C@H](O)[C@H]3O)[C@H]3COC(=O)[C@H]23)OCO4)cc(OC)c1O [etoposide] + O=C(CCCCCCC(=O)Nc1ccccc1)NO [vorinostat] (first compound 0.02 µM, partner dose 0.08 µM) | 99.2%
6 | C[C@]1(O)C[C@@H](c2nc(-c3ccc4ccc(-c5ccccc5)nc4c3)c3c(N)nccn32)C1 + CO[C@@H]1[C@H](N(C)C(=O)c2ccccc2)C[C@H]2O[C@]1(C)n1c3ccccc3c3c4c(c5c6ccccc6n2c5c31)C(=O)NC4 [Midostaurin] (first compound 0.4 µM, partner dose 0.08 µM) | 94.4%
7 | CCN(CC)CCNC(=O)c1c(C)[nH]c(/C=C2\C(=O)Nc3ccc(F)cc32)c1C [sunitinib] + C[C@@H]1CCN(C(=O)CC#N)C[C@@H]1N(C)c1ncnc2[nH]ccc12 [CP690550] (first compound 0.4 µM, partner dose 1 µM) | 109%
8 | Cn1cnc2c(F)c(Nc3ccc(Br)cc3Cl)c(C(=O)NOCCO)cc21 [selumetinib] + CCc1ccc(CCOc2ccc(CC3SC(=O)NC3=O)cc2)nc1 [pioglitazone] (first compound 0.015 µM, partner dose 2 µM) | 101%
9 | C[C@]1(O)C[C@@H](c2nc(-c3ccc4ccc(-c5ccccc5)nc4c3)c3c(N)nccn32)C1 + CCN(CC)CCCCNc1ncc2cc(-c3cc(OC)cc(OC)c3)c(NC(=O)NC(C)(C)C)nc2n1 [PD173074] (first compound 0.4 µM, partner dose 0.1 µM) | 104%
10 | COc1cc([C@@H]2c3cc4c(cc3[C@@H](O[C@@H]3O[C@@H]5CO[C@@H](C)O[C@H]5[C@H](O)[C@H]3O)[C@H]3COC(=O)[C@H]23)OCO4)cc(OC)c1O [etoposide] + CN(NC(=O)CC(=O)NN(C)C(=S)c1ccccc1)C(=S)c1ccccc1 [STA4783] (first compound 0.02 µM, partner dose 0.006 µM) | 108%
11 | C[C@]1(O)C[C@@H](c2nc(-c3ccc4ccc(-c5ccccc5)nc4c3)c3c(N)nccn32)C1 + Cc1cc([N+](=O)[O-])ccc1NS(=O)(=O)c1cc(Cl)ccc1Cl [FH535] (first compound 0.4 µM, partner dose 1 µM) | 70.3%
12 | CCN(CC)CCNC(=O)c1c(C)[nH]c(/C=C2\C(=O)Nc3ccc(F)cc32)c1C [sunitinib] + COC(=O)c1sccc1S(=O)(=O)Nc1ccc(Nc2ccccc2)cc1OC [GSK0660] (first compound 0.4 µM, partner dose 1 µM) | 104%
13 | Cn1cnc2c(F)c(Nc3ccc(Br)cc3Cl)c(C(=O)NOCCO)cc21 [selumetinib] + COc1cc2c(Oc3ccc4[nH]c(C)cc4c3F)ncnc2cc1OCCCN1CCCC1 [cediranib] (first compound 0.015 µM, partner dose 0.4 µM) | 109%
14 | Cn1cnc2c(F)c(Nc3ccc(Br)cc3Cl)c(C(=O)NOCCO)cc21 [selumetinib] + COc1cc2ncnc(Nc3ccc(Oc4ccccc4)cc3)c2cc1OC [SrcI1] (first compound 0.015 µM, partner dose 2 µM) | 106%
15 | Cn1cnc2c(F)c(Nc3ccc(Br)cc3Cl)c(C(=O)NOCCO)cc21 [selumetinib] + NC(=O)Nc1cc(-c2cccc(F)c2)sc1C(=O)N[C@H]1CCCNC1 [AZD7762] (first compound 0.015 µM, partner dose 0.02 µM) | 118%
16 | COc1cc([C@@H]2c3cc4c(cc3[C@@H](O[C@@H]3O[C@@H]5CO[C@@H](C)O[C@H]5[C@H](O)[C@H]3O)[C@H]3COC(=O)[C@H]23)OCO4)cc(OC)c1O [etoposide] + Cn1cncc1[C@@](N)(c1ccc(Cl)cc1)c1ccc2c(c1)c(-c1cccc(Cl)c1)cc(=O)n2C [tipifarnib] (first compound 0.02 µM, partner dose 0.01 µM) | 96.8%
17 | CCN(CC)CCNC(=O)c1c(C)[nH]c(/C=C2\C(=O)Nc3ccc(F)cc32)c1C [sunitinib] + O=C(CCCCCCC(=O)Nc1ccccc1)NO [vorinostat] (first compound 0.4 µM, partner dose 0.08 µM) | 97.3%
18 | COc1cc([C@@H]2c3cc4c(cc3[C@@H](O[C@@H]3O[C@@H]5CO[C@@H](C)O[C@H]5[C@H](O)[C@H]3O)[C@H]3COC(=O)[C@H]23)OCO4)cc(OC)c1O [etoposide] + Cc1cc([N+](=O)[O-])ccc1NS(=O)(=O)c1cc(Cl)ccc1Cl [FH535] (first compound 0.02 µM, partner dose 1 µM) | 90.4%

Source: the supplement of paper PMC4604168 (melanoma cell lines)
